Measured values taken from PubChem BioAssay AID686970 (National Center for Advancing Translational Sciences (NCATS), 2013).
Among all 360,000 compounds or so, about 6,000 (1.7%) were called active. The inconclusive results got no clear call from the source; some entries with a clear call stand among them for comparison. Calls come from the whole dose curve; as a rule, active = well fitted cell-killing curve with a large enough effect; inconclusive = small, poorly fitted or top-dose-only effect, or effect the other way; inactive = flat fitted curve, though single readings scatter. Potencies of inconclusive entries are left out as doubtful fits.

assay: qHTS for induction of synthetic lethality in tumor cells producing 2HG: qHTS for the HT-1080-NT fibrosarcoma cell line; settings: HT-1080-NT fibrosarcoma viability, CellTiter-Glo ATP luminescence, 48 h; activity, negative = less viability: at 46.1 µM (top of the series) unless noted;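 note: NT is the 2HG producing partner of a matched IDH1 knockdown line; nearly all actives have a fitted effect of over 55% in size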;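 for activity, negative = less viability: 0% = DMSO-treated cells and -100% = media-only wells without cells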
How it was run: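 Luminescent CellTiter-Glo readout after 48 hours of compound exposure at 37 degrees C defined viability of HT-1080-NT cells. Activity was normalized to DMSO wells and cell-free media wells; concentration-response curves were fitted and assigned curve classes.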
Potency is the fitted concentration of half-maximal effect; tags give direction and shape of the fitted curve.

With `O=C(N/N=C/c1ccccn1)c1cc(-c2ccc(Cl)cc2)nc2ccccc12` as the molecule, how does the Potency read?
The Potency was “inactive”.

For `S=C(NCCCN1CCOCC1)N1CCN(c2nc(-c3ccc(Cl)cc3)cs2)CC1`, which Potency is on record?
The Potency was inconclusive [cytotoxic, single point].

With `COc1ccc(-c2csc(NC(=S)NC(=O)c3ccc(S(=O)(=O)N(C)C)cc3)n2)cc1OC` as the molecule, how does the Potency read?
Its Potency is inconclusive [cytotoxic, full curve].

With `CN1CCN(NC(=O)c2cccc(S(=O)(=O)N3CCCCCC3)c2)CC1` as the molecule, how does the Potency read?
The Potency was “inactive”.

For `CC1=CN2C(c3cccc([N+](=O)[O-])c3)=NON(c3ccc(C)cn3)C2C=C1` (stereo unspecified), which Potency is on record?
Its Potency is inconclusive [rising, single point].

For `O=C(O)c1ccc(/C=C2\SC(=S)N(Nc3ccccc3)C2=O)cc1`, which Potency is on record?
The Potency was inconclusive [cytotoxic, partial curve].

Which Potency does the source give for `CCCC(=O)N1CCC1(C)C(=O)NS(=O)(=O)c1ccccc1` (stereo unspecified) here?
Its Potency is inconclusive [rising, single point].

For `CCc1ccc(N2C=C(C(=O)OC)C(c3ccc(OC)cc3)C(C#N)=C2N)cc1` (stereo unspecified), which Potency is on record?
The Potency was inconclusive [cytotoxic, single point].

Which Potency does the source give for `CCCC[C@@H]1Cc2[nH][nH]c(=O)c2[C@H](c2ccc3ccccc3c2)O1` here?
Its Potency is “inactive”.

For `N#C/C(=C/c1ccc(Sc2nc3ccccc3[nH]2)o1)c1ccccc1F`, which Potency is on record?
The Potency was inconclusive [cytotoxic, single point].

With `COC(=O)[C@@]12C[C@@H](CC(=O)NCC34CC5CC(CC(C5)C3)C4)C(=O)N(Cc3ccccc3)C1=CCC(C)(C)C2` as the molecule, how does the Potency read?
The Potency was inconclusive [cytotoxic, single point].

With `CC1(Cc2ccccc2Cl)C(=O)Nc2cc(-c3ccccc3Cl)ccc21` (stereo unspecified) as the molecule, how does the Potency read?
Its Potency is inconclusive [cytotoxic, single point].

For `O=C(Cc1ccccc1)NS(=O)(=O)c1ccccc1`, which Potency is on record?
The Potency was inconclusive [rising, single point].

For `Cc1ccc(N2C(=O)N3[C@@H]4c5ccccc5OC[C@@H]4[C@@H](c4ccccc4)[C@@]3(C)C2=O)cc1`, which Potency is on record?
Its Potency is inconclusive [rising, single point].

With `Cc1ccc(/C=C2/CNC/C(=C/c3ccc(C)cc3)C2=O)cc1` as the molecule, how does the Potency read?
Its Potency is active: 14.6 µM.

For `Nc1ccc(O)c2c1C(=O)c1ccccc1C2=O`, which Potency is on record?
Its Potency is inconclusive [cytotoxic, single point].

With `CCOc1ccc(N(CC(=O)Nc2ccccc2OCC)S(=O)(=O)c2c(C)noc2C)cc1` as the molecule, how does the Potency read?
Its Potency is active: 2.31 µM.

Which Potency does the source give for `CCN(c1ccccc1)S(=O)(=O)c1ccc2ccccc2c1` here?
Its Potency is “inactive”.

With `CCN(CC)S(=O)(=O)c1cccc(-n2c(O)c(C=Nc3ccccc3C(=O)O)c3ccccc3c2=O)c1` as the molecule, how does the activity, negative = less viability read?
Its activity, negative = less viability is inconclusive: -31.2% [cytotoxic].

Which Potency does the source give for `COCCNC(=S)NNC(=O)c1ccc(-n2cnnn2)cc1` here?
Its Potency is “inactive”.

Which Potency does the source give for `CN1CCN(C2=Cc3ccccc3Sc3cc(F)c(Cl)cc32)CC1` here?
The Potency was inconclusive [cytotoxic, single point].

With `COc1cc(OC)c2c(-c3cccc(-c4ccc(C#N)cc4)c3)cc(=O)oc2c1` as the molecule, how does the activity, negative = less viability read?
Its activity, negative = less viability is inconclusive: -19.3% [cytotoxic].

Which Potency does the source give for `CCCCNc1nc(-c2ccccc2)cc(C(F)(F)F)c1C(N)=O` here?
The Potency was inconclusive [cytotoxic, single point].

With `O=C(Nc1c[nH]c(=O)[nH]c1=O)c1ccc([N+](=O)[O-])cc1` as the molecule, how does the Potency read?
Its Potency is “inactive”.

Which Potency does the source give for `CCC1(C)Cc2c(sc3nnn(CC(=O)Nc4cccc5ccccc45)c(=O)c23)CO1` (stereo unspecified) here?
Its Potency is inconclusive [cytotoxic, partial curve].

With `COc1cc(C2Nc3ccc4ncccc4c3C3=C2C(=O)CCC3)ccc1O` (stereo unspecified) as the molecule, how does the Potency read?
The Potency was inconclusive [cytotoxic, partial curve].

With `CSc1ncccc1C(=O)OCC(=O)Nc1cc(C(F)(F)F)ccc1N1CCOCC1` as the molecule, how does the Potency read?
The Potency was “inactive”.

For `O=C(CN(C1CCCCC1)C1CCCCC1)N1CCc2ccccc2C1`, which Potency is on record?
Its Potency is inconclusive [cytotoxic, single point].

With `N#C/C(=C(/O)c1ccc(-c2cccc([N+](=O)[O-])c2)o1)c1nc2ccccc2s1` as the molecule, how does the Potency read?
The Potency was inconclusive [cytotoxic, single point].

With `COc1cccc(N2CCN(C(=O)Cn3c(=O)oc4ccccc43)CC2)c1` as the molecule, how does the Potency read?
The Potency was “inactive”.

For `CN[C@@H](C)C(=O)NC[C@H]1O[C@@H](n2cnc3c(N)ncnc32)[C@H](O)[C@@H]1O`, which Potency is on record?
The Potency was “inactive”.

Which Potency does the source give for `Cc1nc(C(=O)Nc2cc(Cl)ccc2Cl)nn1-c1cc(OC(C)C)c(Cl)cc1Cl` here?
The Potency was inconclusive [cytotoxic, single point].

With `NC(=O)c1ccc(N=Cc2ccc([N+](=O)[O-])s2)cc1` as the molecule, how does the Potency read?
Its Potency is inconclusive [cytotoxic, single point].

Which Potency does the source give for `COC(=O)[C@H]1[C@H]2C[C@@H]3c4[nH]c5cc(OC)ccc5c4CCN3C[C@H]2C[C@@H](OC(=O)c2cc(OC)c(OC)c(OC)c2)[C@@H]1OC` here?
Its Potency is inconclusive [cytotoxic, single point].

With `O=C(NC1CCCCC1)C(C1CC1)n1c(=O)c(-c2cc3ccccc3[nH]2)nc2ccccc21` (stereo unspecified) as the molecule, how does the Potency read?
Its Potency is inconclusive [cytotoxic, partial curve].

For `CC(O)(c1ccc(F)c(F)c1)c1nc(-c2ccc3ccccc3c2)cs1` (stereo unspecified), which Potency is on record?
The Potency was inconclusive [cytotoxic, single point].

For `Cc1nn(Cc2ccc(C(=O)NC3CCCCC3)o2)c(C)c1Br`, which Potency is on record?
Its Potency is “inactive”.

For `Cc1cccc(-n2cc(CNCCc3nc(C)cc(C)n3)c(-c3cccc(F)c3)n2)c1`, which Potency is on record?
Its Potency is inconclusive [cytotoxic, single point].

Which Potency does the source give for `CCCCC(=O)Nc1cccc(-c2nnc(-c3ccccc3)o2)c1` here?
Its Potency is inconclusive [cytotoxic, single point].

With `COc1ccc(C(CCN2CCCC2)c2c(OC)cc(OC)c3c(-c4ccccc4)cc(=O)oc23)cc1` (stereo unspecified) as the molecule, how does the Potency read?
Its Potency is inconclusive [cytotoxic, partial curve].

For `CN(/N=C/c1ccc(O)cc1O)c1nc(-c2ccccc2)cc(-c2ccccc2)n1`, which Potency is on record?
The Potency was inconclusive [cytotoxic, single point].
